Assay [1] addresses recombinant neuraminidase (rNA) of B/Yamagata/16/88 (influenza B virus B/Yamagata/16/88) (UniProt Q90021). In words: ELISA, rNA coated at 2 ug/mL; bar = minimal binding concentration. (In general: ELISA stands for enzyme-linked immunosorbent assay.)
For assay [2], the target named is neuraminidase of B/Yamagata/16/88 virus (on virus and on infected MDCK cells) (influenza B virus B/Yamagata/16/88) (UniProt Q90021). The experiment in a line: told with the ADCC result; binding by ELISA is shown in FIG. 1A.

Results are given in words; binding and its absence hold for the method and conditions named. Some results given as binding are weak or reduced against the parent protein; the word gives no strength.

B1: 4B2 antibody (murine IgG2a, hybridoma-produced) (antibody, V domains shown)
VH: QIQLVQSGPELKKPGETVKISCKASGFTFTDYPMHWVKQAPGKSLKWMGWINTETEEPTYSDDFKGRFALSLETSASTTYLQINNLKNEDTATYFCARSGYYYGSTYAWFGYWGQGTLVTVSA
VL: DVVMTQIPLSLPVSLGDQASISCRSSQSLIHTNGDTFLHWYLQKPGQSPKLLIYKVSNRFSGVPDRFTGGGSGTDFTLKISRVEAEDLGIYFCSQSALFPYTFGGGTNLEIK
notes: also called mAb 4B2
Regarding B1, the binding entry in assay [1] is “binds”.

B2: 3G1 antibody (murine IgG2a, hybridoma-produced) (antibody, V domains shown)
VH: QVQLQQSGAELMKPGASVKISCKATGYKFTSYWIGWVKQRPGHGLEWCGEIFPGSGSINYNEKFKGKATFTADTSSNTAYLQLTSLTSEDSAVYYCARGEDYYGSSYGAMDYWGQGTSLTVSS
VL: DVQITQSPSYLAASPGETITINCRASKSISKYVAWYQEKPGRTNKVLIYSGSILSFGNPSRFSGSGSGTDFTLTISSLEPEDFAMYYCQQHNEYPWTFGGGTKLEIK
notes: also called mAb 3G1
With B2, the binding result is “no binding (tested: 10 ug/ml)” in assay [1] and “no binding (tested: low concentrations)” in assay [2].

B3: 4F11 antibody (murine IgG2b, hybridoma-produced) (antibody, V domains shown)
VH: DVKLVESGGDLVKPGGSLKLSCAASGFTFSAYSMSWVRQTPERRLEWVATINTGGSFTYYPDSVKGRFTISRDNAKNTLYLQMSSLKSEDTAMYFCTRVSDYGNSAYFPYWGQGTLVIVSA
VL: QVVLTQSPALISASPGEKVTMTCSASSNVNYMSWYQQRPRSSPKPWIYLTSKLASGVPPRFSGSGSGTSYSLTISSMEAEDVATYYCQQWSSDPQTFGGGTKVEIK
notes: also called mAb 4F11; 4F11 Hybridoma
In the case of B3, the binding entry in assay [1] is recorded as “binds”.

B4: 1F4 antibody (murine IgG2a, hybridoma-produced) (antibody, V domains shown)
VH: QVHLQQSGSELRSPGSSVKLSCKDFDSEVFPIVYMRWIRQKPGHGFEWIGDILPSFGRTIYGEKFEDKATLDADTVSNTAYLELNSLTSEDSAIYYCARGDHGNWLAYWGQGTLVTVSA
VL: DIVMTQSHKFMSTSVGDRVTITCKASQDVSTAVAWYQQKPGQSPKLLIYWASTRHTGVPNRFTGIISGTDYTLTISSVQAEDLALYYCQQHYSAPWTFGGGTKLEIK
notes: also called mAb 1F4; IF4
For B4, the binding result in assay [1] is “binds”.

These data come from US20220153873A1 (ICAHN SCHOOL OF MEDICINE AT MOUNT SINAI, published 2022).
